In the antibiotic and cytotoxicity screens of Wong et al. (2023):
The list shows a part of the results.

Assays:
[1] = tested on: HSkMC (human skeletal muscle cells); experiment: cytotoxicity call (relative viability < 0.9); settings: 10 µM
[2] = tested on: HepG2; experiment: cytotoxicity call (relative viability < 0.9); settings: 10 µM
[3] = tested on: S. aureus RN4220; experiment: growth inhibition call (relative growth <= 0.2); settings: 50 µM

Compound | cytotoxicity call [1] | cytotoxicity call [2] | growth inhibition call [3]
COc1ccc2c3c(n(c2c1)C)[C@@H](CO)N(Cc1cc(cc(c1)OC)OC)C[C@]13CCN(CC1)C(=O)Nc1cccc(c1)F | inactive | inactive | inactive
CS(=O)(=O)N1CCS(=O)(=O)[C@H]2CCN(CC3CC3)CC[C@@H]21 | inactive | inactive | inactive
Cc1ccc(C(=O)O)c(=O)n1C | inactive | inactive | inactive
C[C@H]1CN([C@@H](C)CO)C(=O)c2cccc(NC(=O)C3CCOCC3)c2O[C@@H]1CN(C)Cc1ccncc1 | inactive | inactive | inactive
C[C@@H]1CN([C@@H](C)CO)C(=O)c2cccc(NS(=O)(=O)c3ccc(F)cc3)c2O[C@@H]1CN(C)Cc1ccncc1 | inactive | inactive | inactive
COc1cc(Nc2nc3ccccc3nc2NS(=O)(=O)c2ccc(NC(=O)c3ccc(C)c(OC)c3)cc2)cc(OC)c1 | inactive | inactive | inactive
C[C@@H]1CN([C@@H](C)CO)S(=O)(=O)c2ccc(Br)cc2O[C@@H]1CN(C)C(=O)c1cnccn1 | inactive | inactive | inactive
CC(C)NC(=O)N(C)C[C@H]1Oc2cc(C#Cc3ccc(F)cc3)ccc2S(=O)(=O)N([C@H](C)CO)C[C@H]1C | inactive | inactive | inactive
C[C@@H]1CN([C@@H](C)CO)C(=O)c2c(c3ccccc3n2C)-c2ccccc2CO[C@@H]1CN(C)C(=O)NC1CCCCC1 | inactive | inactive | inactive
CN1CCN(C(=O)[C@H]2[C@H](CO)[C@H]3Cn4c(ccc(-c5cncnc5)c4=O)[C@H]3N2CC2CC2)CC1 | inactive | inactive | inactive
CCCC#Cc1cnc2c(c1)C(=O)N([C@H](C)CO)C[C@H](C)[C@@H](CN(C)S(=O)(=O)c1cn(C)cn1)O2 | inactive | inactive | inactive
CC(C)NC(=O)Nc1cccc2c1O[C@@H](CN(C)S(=O)(=O)c1ccccc1)[C@H](C)CN([C@H](C)CO)C2=O | inactive | inactive | inactive
CCOC(=O)[C@@H](N)Cc1ccccc1 | inactive | inactive | inactive
NC(=O)C12CC3C[C@@H](C1)C(=O)[C@@H](C3)C2 | inactive | inactive | inactive
C[C@@H]1CCCCO[C@H](CN(C)C(=O)Cc2ccccc2)[C@@H](C)CN([C@@H](C)CO)C(=O)c2cc(NC(=O)Nc3ccc(C(F)(F)F)cc3)ccc2O1 | inactive | inactive | inactive
O=C(C[C@H]1CC[C@@H]2[C@H](COC[C@H](O)CN2C(=O)Nc2ccc(Cl)cc2)O1)NC1Cc2ccccc2C1 | inactive | inactive | inactive
CC(C)(C)c1ccc(NC(=O)N[C@H]2CCCc3ccccc32)cc1 | inactive | active | inactive
Cc1ccc(S(=O)(=O)Nc2ccc3c(c2)C(=O)N([C@@H](C)CO)C[C@@H](C)[C@H](CN(C)C(=O)Nc2cccc4ccccc24)O3)cc1 | inactive | inactive | inactive
